Data published in the supplement of paper PMC4604168 (melanoma cell lines).
Some of the results follow. Single values are uncertain, as repeats are few or missing.

Tests used:
Test in all cases: cell count relative to DMSO control; melanoma cells; higher = more viable cells
Conditions in all cases: library dose: standard library concentration; 72 h
501Mel = test system: 501Mel
A101D = test system: A101D
A2058 = test system: A2058
A375 = test system: A375
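Note: cells treated in 1,536-well plates, then fixed and DAPI-stained, with nuclei counted from automated high-throughput microscope images.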

Row | Structure (SMILES) | cell count (501Mel) [%] | cell count (A101D) [%] | cell count (A2058) [%] | cell count (A375) [%]
1 | Nc1cccc2c1CN(C1CCC(=O)NC1=O)C2=O (stereo unspecified) [lenalidomide] + CCN(CC)CCCCNc1ncc2cc(-c3cc(OC)cc(OC)c3)c(NC(=O)NC(C)(C)C)nc2n1 [PD173074] (first compound 5 µM, partner dose 0.5 µM) | 99.1 | 109 | 89.2 | 128
2 | Cn1c(Nc2ccc(C(F)(F)F)cc2)nc2cc(Oc3ccnc(-c4ncc(C(F)(F)F)[nH]4)c3)ccc21 + CCN(CC)CCCCNc1ncc2cc(-c3cc(OC)cc(OC)c3)c(NC(=O)NC(C)(C)C)nc2n1 [PD173074] (first compound 0.4 µM, partner dose 0.5 µM) | 44.1 | 53.8 | 65.2 | 77
3 | O=C(CCCCCCC(=O)Nc1ccccc1)NO [vorinostat] + COc1cc2ncnc(Nc3ccc(Oc4ccccc4)cc3)c2cc1OC [SrcI1] (first compound 0.4 µM, partner dose 10 µM) | 60.2 | 64.3 | 91.3 | 134
4 | C#Cc1cccc(Nc2ncnc3cc(OCCOC)c(OCCOC)cc23)c1 [erlotinib] + O=C1NC(=O)/C(=C/c2ccc(-c3ccc(F)cc3O)o2)S1 [AS252424] (first compound 4 µM, partner dose 5 µM) | 67.6 | 82.8 | 94.9 | 123
5 | Nc1cccc2c1CN(C1CCC(=O)NC1=O)C2=O (stereo unspecified) [lenalidomide] + COc1cc2ncnc(Nc3ccc(Oc4ccccc4)cc3)c2cc1OC [SrcI1] (first compound 5 µM, partner dose 10 µM) | 63.4 | 54.9 | 89.7 | 142
6 | Clc1ccc(Nc2nnc(Cc3ccncc3)c3ccccc23)cc1 [vatalanib] + Cc1cc([N+](=O)[O-])ccc1NS(=O)(=O)c1cc(Cl)ccc1Cl [FH535] (first compound 10 µM, partner dose 5 µM) | 56.6 | 59 | 91.2 | 80.7
7 | COCC[n+]1c2c(n(Cc3cnccn3)c1C)C(=O)c1ccccc1C2=O + CCN(CC)CCCCNc1ncc2cc(-c3cc(OC)cc(OC)c3)c(NC(=O)NC(C)(C)C)nc2n1 [PD173074] (first compound 0.002 µM, partner dose 0.5 µM) | 87.9 | 60.1 | 18.9 | 55.5
8 | O=C(CCCCCCC(=O)Nc1ccccc1)NO [vorinostat] + Oc1nc(-c2ccc(C(F)(F)F)cc2)nc2c1CSCC2 [XAV939] (first compound 0.4 µM, partner dose 10 µM) | 68.2 | 74.4 | 74.5 | 91.7
9 | COCC[n+]1c2c(n(Cc3cnccn3)c1C)C(=O)c1ccccc1C2=O + O=S(=O)(c1ccccc1)N(CC(F)(F)F)c1ccc(C(O)(C(F)(F)F)C(F)(F)F)cc1 [T0901317] (first compound 0.002 µM, partner dose 7 µM) | 49.7 | 74.2 | 27.8 | 79.8
10 | C#Cc1cccc(Nc2ncnc3cc(OCCOC)c(OCCOC)cc23)c1 [erlotinib] + O=S(=O)(c1ccccc1)N(CC(F)(F)F)c1ccc(C(O)(C(F)(F)F)C(F)(F)F)cc1 [T0901317] (first compound 4 µM, partner dose 7 µM) | 69.2 | 67.5 | 101 | 110
11 | OCc1c[nH]c2ccccc12 [Indole-3-carbinol] + O=S(=O)(c1ccccc1)N(CC(F)(F)F)c1ccc(C(O)(C(F)(F)F)C(F)(F)F)cc1 [T0901317] (first compound 4 µM, partner dose 7 µM) | 70.1 | 92.9 | 107 | 87.2
12 | Nc1cccc2c1CN(C1CCC(=O)NC1=O)C2=O (stereo unspecified) [lenalidomide] + Cc1cc([N+](=O)[O-])ccc1NS(=O)(=O)c1cc(Cl)ccc1Cl [FH535] (first compound 5 µM, partner dose 5 µM) | 99.2 | 97.3 | 77.4 | 75.3
13 | O=C(CCCCCCC(=O)Nc1ccccc1)NO [vorinostat] + COc1cc(N2CCC(N3CCN(C)CC3)CC2)ccc1Nc1ncc(Cl)c(Nc2ccccc2S(=O)(=O)C(C)C)n1 [NVP-TAE684] (first compound 0.4 µM, partner dose 0.4 µM) | 56.2 | 80.7 | 69.3 | 99.2
14 | O=C(CCCCCCC(=O)Nc1ccccc1)NO [vorinostat] + O=S(=O)(c1ccccc1)N(CC(F)(F)F)c1ccc(C(O)(C(F)(F)F)C(F)(F)F)cc1 [T0901317] (first compound 0.4 µM, partner dose 7 µM) | 40.9 | 84.7 | 92.6 | 112
